Assay results taken from ChEMBL document CHEMBL4888484, “Replenishing the malaria drug discovery pipeline: Screening and hit evaluation of the MMV Hit Generation Library 1 (HGL1) against asexual blood stage Plasmodium falciparum ,using a nano luciferase reporter read-out” (2022).
About 540 (0.36%) of roughly 150,000 compounds showed an effect of 50% or more. Some of the results follow.

test system: Plasmodium falciparum; experiment: Primary screen in NF54 nanoGlo assay, in single point, at 2uM, 72h; a lower Z score goes with more inhibition; format: functional, Erythrocyte; settings: timepoint 72 hour

| SMILES | % Inhibition [%] | Z score |
| --- | --- | --- |
| CCn1nncc1C(=O)N1CCC(Cc2ccc(C(C)C)cc2)CC1 | -8 | 1.08 |
| O=C(CC1CCN(C(=O)c2nnc(C(=O)Nc3ccc(Cl)cc3)s2)CC1)NC1CCCCCC1 | -37 | 3.3 |
| CCN1C(=O)CN(C(=O)c2nccc3ccccc23)CC12CCOCC2 | -4 | 0.49 |
| CN(C)S(=O)(=O)c1cnn(CCCF)c1 | 2 | -0.21 |
| CN1CCCC(C)(C)[C@@H]1CNC(=O)c1ncnc2ccsc12 | -10 | 1.98 |
| Cc1ccc(-c2ccnc3c(C(=O)N4CCOCC4)cnn23)cc1C | 37 | -4.23 |
| Cc1cccc(CNC(=O)c2[nH]c3cc(C)sc3c2CN2CCOCC2)c1 | -3 | 0.6 |
| Cc1noc([C@H](C)NC(=O)N2CCC(c3ncon3)CC2)n1 | -17 | 2.51 |
| COc1cnccc1-c1noc(C[C@H](O)COCc2ccccc2)n1 | -14 | 1.6 |
| COc1cc(CNC2CCCC2)cc(Cl)c1OCc1ccc(Cl)cc1Cl | -6 | 0.76 |
| Cc1noc(C)c1Cc1nc([C@H]2CCOC2)no1 | -11 | 1.7 |
| CC(C)c1cc(NS(=O)(=O)c2ccc3c(c2)OCCCO3)[nH]n1 | 38 | -5.46 |
| O=C(NCC1CCCO1)N1CC2CC1CS2(=O)=O (stereo not drawn) | -12 | 1.36 |
| CCC[C@H]1CN(Cc2csc(C)n2)C[C@@H]1NC(=O)C1CCOCC1 | -7 | 1.36 |
| Cc1cccc(-n2nc(-c3nc(-c4ccc(C(F)(F)F)cc4)no3)c3ccccc3c2=O)c1 | -6 | 0.99 |
| Cc1nc(Cc2nc(-c3nonc3C)cs2)cs1 | 35 | -3.93 |
| O=C(Nc1cccc(S(=O)(=O)N2CCCCC2)c1)C1=NN(c2ccccc2)C(=O)CC1 | 1 | -0.09 |
| Cc1cc(C)nc(CNC(=O)Cn2nnnc2CN2C[C@@H](C)O[C@@H](C)C2)n1 | -15 | 2.63 |
| CC1CCCN(S(=O)(=O)N2CCCC2c2nnc3ccccn23)C1 (stereo not drawn) | 6 | -0.8 |
| Cc1ncc(C(=O)N[C@H]2CC[C@H](O)CC2)c(O)c1Br | -5 | 0.54 |
| NC(=O)c1cn[nH]c1NCc1ccc2c(c1)CCCC2 | 0 | 0.05 |

| SMILES | % Inhibition [%] | Z score |
| --- | --- | --- |
| O[C@H]1C[C@@H](C(Nc2cnccn2)c2ccc(F)cc2F)C1 (stereo partly drawn) | 5 | -1.08 |
| CC[C@H](C)[C@H](NC(=O)OCc1ccccc1)C(=O)Nc1ccc(NC(C)=O)cc1 | -6 | 0.72 |
| O=C(C1CC1c1ccc(C(F)(F)F)cc1)N1CCN(C2CS(=O)(=O)CC2O)CC1 (stereo not drawn) | -9 | 1.32 |
| Cc1nc(CC(=O)NCc2cccnc2)cs1 | -8 | 1.42 |
| COc1ccc(CC(=O)NC[C@@H](c2ccc(C)o2)N2CCC(C)CC2)cc1 | -4 | 0.57 |
| COc1c(NC(=O)CCO[C@@H](C)CC(C)C)c(C)nn1C | -4 | 0.58 |
| O=c1[nH]c(=O)n(Cc2nc(-c3ccco3)no2)cc1Cl | 37 | -4.92 |
| CC(C)n1cccc1-c1nc([C@H]2CCOC2)no1 | -7 | 0.93 |
| CCn1cccc(NC(=O)N2CCOCC(F)(F)C2)c1=O | -12 | 1.94 |
| CC(C)(C)OC(=O)CCC(=O)NCc1cc(C#N)ccc1F | -10 | 1.37 |
| O=C(Cc1c[nH]c2ccccc12)Nc1ccc(N2CCOCC2)nc1 | -5 | 0.49 |
| Clc1ccc(Cn2cc(CNCCCn3ccnc3)c3ccccc32)c(Cl)c1 | 98 | -10.9 |
| Cc1n[nH]cc1CNC(=O)[C@@H](C)C(F)(F)F | -8 | 0.91 |
| CCc1nn(C)c(OC)c1CNC(=O)N[C@@H]1Cc2ccccc2[C@H]1O | -13 | 1.27 |
| Cc1cnc(NCc2nc3c(s2)CCC3)s1 | -13 | 1.51 |
| O=C(NCc1ccccc1CN1CCOCC1)[C@@H]1CCCN1C(=O)c1cccs1 | 34 | -3.89 |
| CC(=O)N[C@H](C(=O)Nc1ccc(C)cc1F)C(C)C | -9 | 1.15 |
| COCCC1(C(=O)O)CCN(c2cc(C(C)C)nc(C(F)(F)F)n2)CC1 | 4 | -0.66 |
| CCCC[C@@]1(C(C)(C)C)NS(=O)(=O)c2ccccc21 | -32 | 3.74 |
| Cn1nccc1Cn1cc(S(=O)(=O)N2CCCCC2)ccc1=O | -10 | 1.06 |
| CS(=O)(=O)N(CC(=O)N1CCCCCC1)C1CCCCC1 | -3 | 0.37 |

| SMILES | % Inhibition [%] | Z score |
| --- | --- | --- |
| OC[C@H]1CCC2(CCOCC2)CN1Cc1nnnn1C1CC1 | 1 | -0.2 |
| O=c1cc(COc2ccc3c(c2)CCC3)nc2ccccn12 | -17 | 2.28 |
| Cc1c(C(=O)O)sc2ncnc(N3CCC[C@@]4(C3)OCc3ccccc34)c12 | -29 | 3.07 |
| CCc1ccc(CN2CCC(CNC(=O)c3occc3C)CC2)nc1 | -20 | 2.72 |
| C[C@H](NC(=O)C1=NN(C)C(=O)CC1)c1ccc2c(c1)OCCO2 | -13 | 1.49 |
| CC[C@H]1CCCN(c2nc(OC)cc(OC)n2)CC1 | -11 | 2.36 |
| O=C(Nc1nc(-c2ccc3c(c2)CCCC3)cs1)c1cnns1 | -39 | 4.6 |
| Cc1ccc(NC(=O)CC2CCN(C)CC2)cc1 | -13 | 1.82 |
| CS(=O)(=O)N1CCC(C(=O)NC(c2ccccc2)c2ccccc2)CC1 | -9 | 1.63 |
| CN1C[C@H](O)C[C@H]1c1nnc2n1CCN(S(=O)(=O)c1ccc(F)cc1)CC2 | -5 | 0.56 |
| N#Cc1csc(C(=O)Nc2cnccc2-c2cccc(F)c2)c1 | 3 | -0.47 |
| Cc1nn(C)c(C)c1NC(=O)NCc1csc(N2CCOCC2)n1 | -16 | 1.64 |
| COC(=O)CCN(CC(=O)N[C@@H](C)c1ccc(C)c(C)c1)CC(C)C | -16 | 2.01 |
| Cc1ccc(C(=O)NCc2cccnc2Oc2ccc(F)cc2F)cn1 | -14 | 2.01 |
| Cc1ccccc1S(=O)(=O)N1C(=O)c2ccccc2N(S(=O)(=O)c2ccccc2C)C(=O)c2ccccc21 | -12 | 2 |
| O=C(CCc1nc(CS(=O)(=O)c2ccc(Cl)cc2)no1)Nc1cccc2c1CCCC2 | 7 | -1.25 |
| CCN(CC)c1ccc(CNC(=O)[C@H]2CCS(=O)(=O)C2)cc1F | -4 | 0.54 |
| COc1cccc(OC2CN(Cc3c(C)nn(CCO)c3C)C2)c1 | -14 | 2.34 |
| Cc1ccc(-n2nc3c(N4CCN(C(=O)Nc5cc(C)ccc5C)CC4)nnc(C)c3c2C)cc1 | 9 | -1.02 |
| COCC1CN(C(=O)NC2C3CCc4ccccc4C32)CC(C)O1 (stereo not drawn) | -14 | 1.91 |
| C[C@]1(c2cnccn2)NC(=O)N(Cc2cc(F)ccc2OC(F)F)C1=O | -4 | 0.57 |

| SMILES | % Inhibition [%] | Z score |
| --- | --- | --- |
| COCCCn1cnc2c(-c3ccccc3)cn(CC(=O)Nc3ccc(C)c(F)c3)c2c1=O | -8 | 1.17 |
| CCn1cc(CC(=O)NCCN2CCOCC2)c2cccnc21 | -10 | 1.21 |
| Cc1cc(C(=O)N[C@@H](C)CN2CCc3ccccc3C2)cc2sc(N)nc12 | 4 | -0.73 |
| C[C@H]1C[C@@H](CO)CCN1C(=O)OC(C)(C)C | -12 | 1.26 |
| Cc1nc(-c2nccn2CCc2nc(-c3cccnc3)n[nH]2)co1 | -16 | 1.48 |
| c1ccc(C2NC3c4ccccc4OCC3C2c2ccccc2)cc1 (stereo not drawn) | -14 | 1.6 |
| Cc1ccc(CN2CCC[C@H]2c2nccs2)s1 | -10 | 1.38 |
| CC1(C)[C@H](C(=O)Nc2ccccc2N)CC[C@]1(C)C(=O)O | 0 | 0.05 |
| Cc1ccc(S(=O)(=O)N2CCN(C(=O)c3ccc4c(c3)nc(C)n4-c3ccccc3)CC2)cc1 | -4 | 0.43 |
| Cc1ccsc1C(=O)Nc1scnc1-c1ccc(F)cc1 | 0 | 0.01 |
| CN1CCN(CCOc2ccc(-c3cnc4cncn4c3)cc2)CC1 | -7 | 0.64 |
| CC(C)CNC(=O)C[C@H](c1ccc(C(F)(F)F)cc1)c1cn(Cc2ccccc2)c2ccccc12 | -6 | 0.77 |
| Cc1ccc(S(=O)(=O)c2c(N)n(-c3ccc4c(c3)OCCO4)c3nc4ccccc4nc23)cc1 | 6 | -0.5 |
| Cc1ccc(NC(=O)C2CCCN(S(=O)(=O)c3ccc4c(c3)NC(=O)C(C)O4)C2)c(C)c1 (stereo not drawn) | -9 | 1.35 |
| CCOc1ccc(N(C)S(=O)(=O)c2ccc(-c3cc(C(F)(F)F)n[nH]3)s2)cc1 | -2 | 0.3 |
| N#CCCC1(CCC#N)S(=O)(=O)CC(c2ccc(Cl)cc2)CS1(=O)=O | -3 | 0.58 |
| CC(NS(=O)(=O)N1CC2CCC1C2)C(O)Cc1ccccc1 (stereo not drawn) | -6 | 0.99 |
| COc1ccccc1N1CCN(C(=O)c2ccc(Cn3cncn3)cc2)CC1 | -3 | 0.33 |
| Cc1nnc(NC(=O)N2CCN(Cc3ccncc3)CC2)s1 | 10 | -1.44 |
| CN1CCC(NC(=O)c2n[nH]c3c2CN(C(=O)c2cccc(F)c2)CC3)CC1 | -12 | 2.18 |
| CCN(C)c1ccccc1NCc1nc(C)cs1 | 4 | -0.41 |
